# From the supplement of paper PMC12217912
# Some of the results follow. Sequences were assembled here from the parent chain. Values near 0.05 are background.
# B1: TEV protease; numbered along this chain (parent)
# chain: MGESLFKGPRDYNPISSSICHLTNESDGHTTSLYGIGFGPFIITNKHLFRRNNGTLVVQSLHGVFKVKDTTTLQQHLVDGRDMIIIRMPKDFPPFPQKLKFREPQREERICLVTTNFQTKSMSSMVSDTSCTFPSGDGIFWKHWIQTKDGQCGSPLVSTRDGFIVGIHSASNFTNTNNYFTSVPKNFMELLTNQEAQQWVSGWRLNADSVLWGGHKVFMVKPEEPFQPVKEATQL
# Variants of: B1
# Test: raw area under fraction-flipped curve 0-4 h after induction (AUC4h, not background-subtracted), DNA-recorder readout of cleavage of the substrate (dimensionless); higher = more cleavage of the substrate by the protease variant
# Settings: temperature: 34 °C; time window: 0-4 h after rhamnose induction
# Method: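 In vivo DNA recorder in E. coli TOP10(DE3) ΔrhaA at 34 °C. Each TEVp single-site mutant (parent TEVp 0) is paired with a single-site variant of the 7-mer TEVs (canonical ENLYFQ|S). The substrate sits between flexible linkers in a Bxb1-sfGFP-TEVs-SsrA fusion, so cleavage stabilises Bxb1 and speeds flipping of a recombination array, read by NGS. The value is the raw area under the fraction-flipped curve over 0-4 h after rhamnose induction (AUC4h), with ≥20 reads per time point. It is not background-subtracted; inactive controls average about 0.047.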
# 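Note: Bxb1 expression induced with 0.2% (w/v) L-rhamnose at OD600 near 0.5, cultures sampled hourly, flipped fraction per protease–substrate barcode pair counted by paired-end Illumina sequencing.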
Variant,area with substrate ECLYFQS,area with substrate EDLYFQS,area with substrate EGLYFQS,area with substrate EILYFQS,area with substrate ELLYFQS,area with substrate EPLYFQS,area with substrate EQLYFQS,area with substrate ERLYFQS,area with substrate ESLYFQS,area with substrate ETLYFQS,area with substrate EWLYFQS,area with substrate EELYFQS,area with substrate EKLYFQS,area with substrate EVLYFQS,area with substrate EFLYFQS,area with substrate EHLYFQS,area with substrate EMLYFQS,area with substrate EYLYFQS
N206S,0.138,0.175,0.0947,0.101,0.092,0.0528,0.117,0.129,0.0987,0.112,0.0824,,,,,,,
S209F,0.0985,,0.0944,0.201,,0.141,0.144,0.122,0.137,,,0.138,0.0741,0.108,,,,
V210C,0.0994,,0.077,0.0881,0.0836,0.123,,0.0842,0.0927,,,0.122,0.106,0.0822,0.0902,0.114,0.0897,0.101
V210L,0.103,0.106,0.0625,0.0759,0.0879,0.108,0.108,0.0861,0.0929,,0.0076,0.124,0.0809,0.091,0.0871,0.0973,0.0987,0.0846
V210Q,0.0914,0.114,0.0524,0.0815,0.0836,,,0.0732,0.0843,,0.0708,0.0992,0.074,0.0693,,,0.101,0.0945
V210S,0.0812,0.131,0.0571,0.0608,,0.116,0.0763,0.08,0.0878,0.0853,,,0.0699,0.0797,,0.102,0.0718,
L211H,0.12,0.14,,0.117,,0.144,0.12,,0.114,,0.105,,,,0.0757,,0.106,
L211P,0.0732,0.0887,,,0.0699,0.0819,,0.0683,0.0793,,,,0.0685,,,,0.0806,0.0899
W212Q,0.0928,0.119,,0.0845,0.0958,0.13,,0.0961,,0.103,0.113,,0.0921,0.0768,,0.0961,0.1,0.0823
G214Y,0.0642,,,0.0796,,0.0922,,,0.0759,,,0.0838,0.0833,,,,,0.0732
V217D,0.0575,0.0689,,0.0573,0.0791,0.056,,0.06,0.0685,,,0.0657,0.0411,,0.0549,0.0679,0.0634,
M219G,0.0742,0.106,,0.067,,0.0836,,0.0781,0.0668,,0.075,0.0958,0.109,0.0693,0.0831,,,0.0803
M219I,0.107,,0.0932,0.0869,,0.113,0.116,,0.113,,0.108,0.113,0.0963,0.14,0.112,0.106,,
M219Y,0.103,,,0.0944,,,,0.101,0.109,,0.0953,0.0695,,0.0821,,,0.105,
V220C,0.149,0.168,0.0887,0.0081,0.0977,0.16,,0.107,0.108,,0.0911,0.119,0.103,0.118,,,,0.12
V220D,0.167,,0.111,0.113,0.112,0.15,0.187,0.133,0.137,0.113,0.0969,0.144,0.152,0.111,0.109,,,
V220N,0.127,0.137,0.134,0.109,0.091,,0.14,0.137,0.11,,0.0955,0.145,,0.102,,0.111,,
K221V,0.091,0.0926,,0.0676,,0.157,0.105,0.0675,0.0846,,0.0985,0.0919,0.091,,,,,0.104
E223H,0.089,0.112,0.0964,0.0994,0.0572,0.134,,0.0821,0.0863,,0.0798,,0.0897,0.0604,0.0903,0.0941,0.104,0.0881
E223M,0.102,,0.069,0.0764,,,,,0.154,,0.0895,0.108,,0.0873,,0.0788,0.0871,0.0738
P225A,0.108,0.176,,0.109,,0.121,0.129,0.0974,,0.0801,,0.126,,0.0836,,0.0993,0.124,0.0855
P225D,0.122,,,,0.108,0.159,0.115,,,,0.0918,0.0978,0.112,,,,,
P225L,0.094,,0.0674,0.0858,,,0.0951,0.0874,0.112,,0.0857,,0.115,0.0426,,,0.112,0.129
P225V,0.094,,0.0847,0.107,0.0942,,0.12,0.0977,0.0986,0.111,,0.149,0.0975,0.101,0.103,,0.128,0.119
F226I,0.128,,0.118,,0.095,,0.127,0.122,0.14,,,0.112,0.108,,0.11,,0.125,
Q227S,0.114,0.161,0.0915,0.0904,,0.121,0.0898,0.0809,0.0589,0.126,0.102,,,0.103,0.108,,0.125,0.112
P228H,0.11,,0.109,0.1,0.0972,0.0565,0.0847,0.0971,0.0957,0.117,,0.0838,0.0959,,,0.105,0.111,
P228Q,0.0892,,0.093,0.0804,0.104,0.085,,0.117,0.119,,0.0786,0.136,,0.105,0.117,0.102,0.14,
P228V,0.0996,,0.107,,,,0.127,,0.113,0.124,0.119,0.17,,0.103,,0.0951,,0.156
